# Counter-ions that a name gives are not always drawn.
# Test system: human blood platelets
# Experiment: cells
# Conditions: Platelet, read-out: IC50 vs ADP in human PRP
structure (smiles),measurement,value
"CCC(CC)CN1CCC(S(=O)(=O)CCCOc2ccc3nc4[nH]c(=O)[nH]c4cc3c2)CC1.Cl.Cl [Cmpd 17e, 4-[[3-[2,3-Dihydro-2-oxo-1H-imidazo[4,5-b]quinolin-7yl-oxy]propyl]sulfonyl]1-(2-ethylbut-1yl)piperidine dihydrochloride]",IC50,0.022 µg/mL
"O=c1[nH]c2cc3cc(OCCCS(=O)(=O)C4CCN(CCC5CCCCC5)CC4)ccc3nc2[nH]1 [Cmpd 17g, 1-(2-Cyclohexylethyl)-4-[[(3-[(2,3-dihydro-2-oxo-1H-imidazo[4,5-b]quinolin-7-yloxy]propyl]sulfonyl]piperidinedihydrochloride]",IC50,0.028 µg/mL
"O=c1[nH]c2cc3cc(OCCCS(=O)(=O)C4CCN(CC5CCCCC5)CC4)ccc3nc2[nH]1 [Cmpd 17d, 4-[[3-[2,3-Dihydro-2-oxo-1H-imidazo[4,5-b]quinolin-7-yl-oxy]propyl]sulfonyl]-(cyclohexylmethyl)piperidine dihydrochloride]",IC50,0.018 µg/mL
"CC(C)CN1CCC(S(=O)(=O)CCCOc2ccc3nc4[nH]c(=O)[nH]c4cc3c2)CC1 [Cmpd 17f, 4[[3-[2,3-Dihydro-2-oxo-1H-imidazo[4.5-b]quinolin-7yloxy]propyl]sulfonyll-1-(2-methylpropyl)piperidinedihydrochloride]",IC50,0.014 µg/mL
"O=c1[nH]c2cc3cc(OCCCCS(=O)(=O)C4CCN(Cc5ccccc5)CC4)ccc3nc2[nH]1 [Cmpd 18b, 4[[3-[2,3-Dihydro-2-oxo-1H-imidazo[4,5-b]quinolin-7-yloxyl]butylsulfonyl]-1-(phenylmethyl)piperidinedihydrochloride]",IC50,0.024 µg/mL
CCOC(=O)N1CCC(S(=O)(=O)CCCCOc2ccc3nc4[nH]c(=O)[nH]c4cc3c2)CC1 [Cmpd 13b],IC50,0.2 µg/mL
"CCC(CC)CN1CCC(S(=O)(=O)CCCCOc2ccc3nc4[nH]c(=O)[nH]c4cc3c2)CC1 [l8e, 4[[3-[2,3-Dihydro-2-oxo-1H-imidazo[4.5-b]qouinolin-7-yloxy]butylsulfonyl]-1-(2-ethylbut-1-yl)piperidinedihydrochloride]",IC50,0.012 µg/mL
"O=c1[nH]c2cc3cc(OCCCS(=O)(=O)C4CCN(Cc5ccccc5)CC4)ccc3nc2[nH]1 [Cmpd 17b, 4-[[3-[2,3-Dihydro-2-oxy-1H-imidazo[4,5-b]quinolin-7-yloxy]propyl]sulfonyl]-1-(phenylmethyl)piperidine dihydrochloride]",IC50,0.014 µg/mL
"O=c1[nH]c2cc3cc(OCCCS(=O)(=O)C4CCN(Cc5ccc(F)cc5)CC4)ccc3nc2[nH]1 [Cmpd 17c, 4-[[3-[2,3-Dihydro-2-oxo1H-imidazo[4,5-b]quinolin-7piperidinedihydrochloride]",IC50,0.012 µg/mL
"O=c1[nH]c2cc3cc(OCCCS(=O)(=O)C4CCNCC4)ccc3nc2[nH]1 [Cmpd 17a, 4-[[3-[[(2-,3-Dihydro-2-oxo-1H-imidazo[4,5-b]guinolin7-yl)oxy]propylsulfonyl]piperidinedihydrochloride]",IC50,> 32 µg/mL
"O=c1[nH]c2cc3cc(OCCCS(=O)(=O)C4CCN(Cc5cccc(C(F)(F)F)c5)CC4)ccc3nc2[nH]1 [Cmpd 17i, 4-[3-[2,3-Dihydro-2-oxo1H-imidazo[4,5-b]quinolin-7-yl-oxy]propyl]sulfony]1-[(3-trifluoromethylhenvlmethyphenylmethyl]piperidine dihydrochloride]",IC50,0.024 µg/mL
"O=c1[nH]c2cc3cc(OCCCCS(=O)(=O)C4CCN(Cc5ccc(F)cc5)CC4)ccc3nc2[nH]1 [l8c, dihydrochloride]",IC50,0.04 µg/mL
"O=c1[nH]c2cc3cc(OCCCS(=O)(=O)C4CCN(CCc5ccccc5)CC4)ccc3nc2[nH]1 [Cmpd 17h, 4-[[3-[2,3-Dihydro-2-oxo-1H-imidazo[4,5-b]quinolin-7-yl-oxy]propyl]sulfonyl]-b 1-(2-phenylethyl)piperidine dihydrochloride]",IC50,0.074 µg/mL
"O=c1[nH]c2cc3cc(OCCCS(=O)(=O)C4CCN(CC5CCCCO5)CC4)ccc3nc2[nH]1 (centres unmarked) [Cmpd 17k, 4[[2,3-Dihydro-2-oxo-1H-imidazo[4,5-b]quinolin-7-yl-pxy]propyl]sulfonyl]-1-[(tetrahydro-2H-pyran-2-yl)piperidine dihydrochloride]",IC50,0.02 µg/mL
"O=c1[nH]c2cc3cc(OCCCCS(=O)(=O)C4CCNCC4)ccc3nc2[nH]1 [Cmpd 18a, 4-[[2,3-Dihydro-2-oxo-1H-imidazo[4,5-b]quinolin-7-yloxy]butyl]sulfonyl]piperidine dihydrochloride]",IC50,7.4 µg/mL
CCOC(=O)N1CCC(S(=O)(=O)CCCOc2ccc3nc4[nH]c(=O)[nH]c4cc3c2)CC1 [Cmpd 13a],IC50,0.3 µg/mL
"O=c1[nH]c2cc3cc(OCCCCS(=O)(=O)C4CCN(CC5CCCCC5)CC4)ccc3nc2[nH]1 [Cmpd 18d, 1-(Cyclohexylmethyl)-4-[[3-[2,3-Dihydro-2-oxo-1H-imidaxo [4,5-b]quinolin-7-yloxy]butylsulfonylpiperidinedihydrochloride]",IC50,0.018 µg/mL

# From US5158958A, “Imidazo[4,5-b]quinolinyl oxy alkyl sulfonyl piperidine derivatives” (Bristol-Myers Squibb Company, priority 1992, dated 1992)
